Article PMC12136788
Some of the results follow.

B1: chr2:119552488:119552489:+_ENSMUSG00000027304_ENSMUST00000028767|mus_hu|motif|central (ssRNA)
RNA: GGGAGUUCUACAGUCCGACGAUCGAACAUCGCUUCUUUCCACUUCAUAAACUCACUUUCGGUGAAUUCUUGGUUUGAGACAAACUCGGAACGGAACACGCGUUGGUCAUUGCCAUGCCGUAGUUGCAGCCCUUUGUUUGUUCUCAACAGAGGAUUGAGCAUCA
B2: chr8:3623242:3623243:+_ENSMUSG00000087687_ENSMUST00000156380|mus_hu|FALSE|FALSE (ssRNA)
RNA: GGGAGUUCUACAGUCCGACGAUCCUGCUGGGCGUCGCGAAGGAGCUUCUCCUCCCGCCGCUUCCGUAACCUCUCUUUGAAUUCCUCUAUCUCUUGAAGCUUCUCAGGUGGCCACAGCUCCCUCUUGCGCUGUAUGACAUCGUCCAACAGAGGAUUGAGCAUCA
B3: chr2:61275951:61275952:+_ENSG00000162928_ENST00000295030|hu_mus|motif|central (ssRNA)
RNA: GGGAGUUCUACAGUCCGACGAUCGCUUUCAUUCAACUGCAAAUUAAUUUCUCUGUAAGAAAUGAUUUUUUAAAAUACUCGGAAAUAUUGUUCACCUGCCCACAAACAUGAAACACAUCAAAGAUCUUGUUUGUCUCCAUUUUUCAACAGAGGAUUGAGCAUCA
B4: chrX:147082729:147082730:-_ENSMUSG00000025272_ENSMUST00000087258|mus_hu|FALSE|FALSE (ssRNA)
RNA: GGGAGUUCUACAGUCCGACGAUCACCGAAGCAGAUACUGGUACUGAGUGUACCACCAAAGCUACCACUGGAGCUGGGAGAGCCACCAAAACAGACACUGGUGCUGAGUAUGCCUCCAAAGCCAGUGCUGGUGCUAAGCGCACUCAACAGAGGAUUGAGCAUCA
B5: chr1:138071448:138071449:+_ENSMUSG00000041642_ENSMUST00000075164|mus_mus|FALSE|FALSE (ssRNA)
RNA: GGGAGUUCUACAGUCCGACGAUCGGUAUGCCGGCAUGGGCAGGUCCGGGGCAAUUGUCAGAGCUGCAAAGGAUAGAGAAGGCUAUCCCCUCAUCUGCAGAGCAAGCAGAGGGAAGGCCCCCACCCCCACCCCACCCCACCCCACAACAGAGGAUUGAGCAUCA
B6: chr5:23013406:23013407:-_ENSMUSG00000062604_ENSMUST00000088392|mus_hu|motif|central (ssRNA)
RNA: GGGAGUUCUACAGUCCGACGAUCGUCCAAUGUACUGGGAACAUUUGCUAGCUCAGAAUGCAAUAUUGGUAGAAUUUGCGGAGAAUUCAACCAAGGAUGCCGAAGGCAUUCGCCAGCUGAGGCUCGUUUUUCUGGAACCAUUUCCAACAGAGGAUUGAGCAUCA
B7: chr19:16212804:16212805:+_ENSG00000167460_ENST00000300933|hu_mus|hu_hu_hu_mus_False|18_88 (ssRNA)
RNA: GGGAGUUCUACAGUCCGACGAUCAACAAUUCUGGAGUGAAGGAAAGCAUCAAGGAUGAACAGCAUUAAAGCUCAGUCAGAAGGCACAUGGGCAACAAUGAUCACCCCAGCAUUCUCCUACGUUGACCUUAAAGACAAUCUGUUCAACAGAGGAUUGAGCAUCA
B8: chr11:29608261:29608262:+_ENSMUSG00000020458_ENSMUST00000102843|mus_mus|FALSE|FALSE (ssRNA)
RNA: GGGAGUUCUACAGUCCGACGAUCAGAAGAAAGUAAGUCAUCAUUGGAAUAAAUUGCAGUAUUAAACUCUUCCAUUUGCAAAGAAAUUGUCUCCUUUUUGGUCAAUGUUGGAAUUUCAUUAGAUGCAGCAUCUUUUGUAAUAUGCAACAGAGGAUUGAGCAUCA
B9: chr18:32579733:32579734:+_ENSMUSG00000024381_ENSMUST00000025239|mus_hu|motif|central (ssRNA)
RNA: GGGAGUUCUACAGUCCGACGAUCCUUGUGGAAGUUUUCCUCCAGGCCCGCGAUGCUCUGGAACGUGUUGACGUAGAAACCGGCGCGGCUGUUCCACAGGGACGGCAGCUCCUCCUGCAGAUCCACAUUCAUCUCCUCAAACACCAACAGAGGAUUGAGCAUCA
B10: chr13:110848956:110848957:-_ENSMUSG00000021700_ENSMUST00000167824|mus_hu|motif|central (ssRNA)
RNA: GGGAGUUCUACAGUCCGACGAUCAGGUACCAACACCAAAGCUCUUGGAAGAAUCGAUUUGGAACAGUUCAGGUUUAUUCCGGAGGGUAUCUAGAGGAGUGAAAGUGGUCAGGUAAUGAGUAGCAAAGGAAAAUAAAUUCAUACCAACAGAGGAUUGAGCAUCA
B11: 130224625_130236081_933_CDS_ENSG00000148356_ENST00000300417|human|control|control (ssRNA)
RNA: GGGAGUUCUACAGUCCGACGAUCCUCUUUGCAGAGGAACUGCAAGAUGGCCGCAGUGCCGGCACCACACACCUCCCGCGGCGGGUAGACCAUGGCCGAGGCGUCAAGGCUCAGCAUCUCCAGGGUUCGAACGUGAGCCAGCAUCAACAGAGGAUUGAGCAUCA
B12: 24728237_24728357_11170_CDS_ENSMUSG00000032855_ENSMUST00000035565|mouse|control|control (ssRNA)
RNA: GGGAGUUCUACAGUCCGACGAUCUGGGGGCCGCACACGGGGCACACGCUCACUUACAGGGGUUACAGCUGGGCUCUCUACCAGAGUGUCAUCUUCAUCAGGGUGAAGCCGCUUGGCCACAAGGGAGAAGUAGAGGGCUUCCAGCAACAGAGGAUUGAGCAUCA
B13: chr17:64801638:64801639:+_ENSG00000154229_ENST00000413366|hu_mus|hu_hu_hu_mus_False|38_98 (ssRNA)
RNA: GGGAGUUCUACAGUCCGACGAUCUAUAUAUAUAUAUAUAUACACACACAUAUAUAGUAAAACCCUAGUUAAACGUGUAAAGUAGCCAUUCAUUUUUGAAAUUUUAUCUACAUUAAAAAAUUAAUAUAUCUGAUAGAGUGCCAGCAACAGAGGAUUGAGCAUCA
B14: chr3:123074248:123074249:-_ENSMUSG00000028114_ENSMUST00000029759|mus_mus|FALSE|FALSE (ssRNA)
RNA: GGGAGUUCUACAGUCCGACGAUCGAUAGUGCUAUCUCUCCCAAAGAGAUGAAGGCGUCUUCUACCAAGACAAAAAUGUUCUAUUAUAUGAAAAAUUUCUACUGGUUUUUCUAUAUUGCCAAUCUCAGGUUCUUCUGUGAUAAUCAACAGAGGAUUGAGCAUCA
B15: chr10:33190432:33190433:-_ENSG00000150093_ENST00000302278|hu_mus|hu_hu_hu_mus_True|88_108 (ssRNA)
RNA: GGGAGUUCUACAGUCCGACGAUCUACAUUUUCAAAACCUGCAUGUGAGUAAAACCAUGGCCACAGAGCCCCAAAACUACCCUACUGUGACUAAGAUGCUGCUGCUGUGAGCUUGGUGUUGCAAAAUCCGCCUGAGUAGGAUUCCAACAGAGGAUUGAGCAUCA
B16: 72054991_72055111_810_CDS_ENSG00000197555_ENST00000555818|human|control|control (ssRNA)
RNA: GGGAGUUCUACAGUCCGACGAUCGCUUCGCUGGCGUAUUCUGCGAAGAGCUUUUCUGGGGGAGCUGGGGUAGGCUUCAGGCAUGAGAAAUCUGGAGUCCAUGUUCUCCGACGGUCUUGUCUUGUUUUUCAGCGUGUUCUGUAUCAACAGAGGAUUGAGCAUCA
B17: chr1:63223577:63223578:+_ENSMUSG00000025967_ENSMUST00000129339|mus_mus|FALSE|FALSE (ssRNA)
RNA: GGGAGUUCUACAGUCCGACGAUCAAAGGUCAAGGUCCGUUCCUAGUCUCGGUCCUCCGCGUACCACUGCGACUUGGUAACUAAAGGGCCCACAGGUCGUCCGCCGGCCUUCCCUUGUCUUUGGAAGAAAAUUAAUAAAGGAGGCAACAGAGGAUUGAGCAUCA
B18: chr1:39494564:39494565:+_ENSG00000168653_ENST00000372967|hu_hu|hu_hu_hu_mus_True|38_78 (ssRNA)
RNA: GGGAGUUCUACAGUCCGACGAUCAUGCAUUCGCCUCAUCGUUUUGUACCGAAGCAAACACUCUACGAAGUCAUCGAACUCUAUCUUGCACUCCUUUUCUGCCCGAGUCCCACCGAUCCCGUGUGCACACUCUAUCCACUCUUUCAACAGAGGAUUGAGCAUCA
B19: chr19:8913615:8913616:-_ENSMUSG00000071658_ENSMUST00000096259|mus_hu|mus_mus_mus_hu_False|88_108 (ssRNA)
RNA: GGGAGUUCUACAGUCCGACGAUCAGGGGGGCACCAACUUCUGCCUGAGAUAGGUGCCCCACCCAGUAGGGAGUUGCAGCUGAAAGUAUCUGAUGCAGAAGCAGUGACUAUACGAAAGGAGGCCCCUGGGGAGGGCCAGGCCAGCAACAGAGGAUUGAGCAUCA
B20: chr14:54897011:54897012:-_ENSG00000100528_ENST00000216416|hu_hu|FALSE|FALSE (ssRNA)
RNA: GGGAGUUCUACAGUCCGACGAUCCACCAAAACAUAGAUCAUGCCAUAUAGGUAGUAAAAAAAUGCUAGAAGAUAAAAAGCUAAUUUGCACCAUCCUUCCUUCUGACAAUAUGCUAGAAUAUCUGCAUUCAUGAUGGUUGUAGGCAACAGAGGAUUGAGCAUCA
B21: chr8:74585381:74585382:-_ENSG00000040341_ENST00000355780|hu_hu|motif|central (ssRNA)
RNA: GGGAGUUCUACAGUCCGACGAUCAGGCACUGGGCAAUGAUACCUCUGAUUGUACAUGCCCCGAAAGUUGUAAUUAGCUCGGUAAUUUGGGAAUGGCUUUGGAUCUAAUGGCCUGUAGAUGGCAGGCUCUCCCCUUUUCAUAGCCAACAGAGGAUUGAGCAUCA
B22: chr8:80553714:80553715:+_ENSG00000104435_ENST00000220876|hu_hu|FALSE|FALSE (ssRNA)
RNA: GGGAGUUCUACAGUCCGACGAUCAGCCUCCAGUUUCUUCUGGAUCUCCUCCAGGGACAGGUCUUUCUUCUUUGGAGAAGCUAAAGUUCGUGGGGCUUCUGAGAUAGGAGAUGGUGGCUUCAAGAUCAGCUCAAAAGCCUGGCCCAACAGAGGAUUGAGCAUCA

biological target: T1, UNK ZnF1-3 (human, UniProt Q9C0B0 31-174); assay: nsRBNS (natural sequence RNA bind-n-seq); RBNS binding buffer (assumed for nsRBNS): 25 mM Tris pH 7.5, 150 mM KCl, 3 mM MgCl2, 0.01% Triton X-100, 500 ug/ml BSA, 20 U/ml SUPERase-In, 4 C; UNK is unkempt and MSI1 is Musashi-1; names of the RNAs are library labels; protein concentration not given here; high values mean tight binding
T1 sequence: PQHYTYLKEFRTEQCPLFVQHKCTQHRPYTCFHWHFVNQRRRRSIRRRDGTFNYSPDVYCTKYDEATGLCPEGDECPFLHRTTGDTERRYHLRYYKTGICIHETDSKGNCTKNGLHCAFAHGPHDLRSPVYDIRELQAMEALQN

| Binder | binding signal |
| --- | --- |
| B1 | 0.412 enrichment R |
| B2 | 0.517 enrichment R |
| B3 | 1.3 enrichment R |
| B4 | 1.01 enrichment R |
| B5 | 1.41 enrichment R |
| B6 | 1.08 enrichment R |
| B7 | 1.37 enrichment R |
| B8 | 0.789 enrichment R |
| B9 | 0.504 enrichment R |
| B10 | 2.28 enrichment R |
| B11 | 1.2 enrichment R |
| B12 | 1.22 enrichment R |
| B13 | 2.38 enrichment R |
| B14 | 1.27 enrichment R |
| B15 | 1.12 enrichment R |
| B16 | 0.848 enrichment R |
| B17 | 0.807 enrichment R |
| B18 | 0.724 enrichment R |
| B19 | 1.28 enrichment R |
| B20 | 1.19 enrichment R |
| B21 | 0.869 enrichment R |
| B22 | 1.02 enrichment R |
